Laboratory results published in PubChem BioAssay AID1159614 (National Center for Advancing Translational Sciences (NCATS), 2016).
The whole screen tested about 45,000 compounds, of which about 65 (0.1%) were called active. The call rests on the fitted dose curve; in most records, active means well fitted activation curve with a large enough effect; inconclusive means small, poorly fitted or top-dose-only effect; inactive means no such curve, though single readings can be large or run the other way. Some of the results follow.

These compounds were tested against Galactocerebrosidase (Homo sapiens) (UniProt P54803) (assay: A Novel Cell-Based Assay to Identify Small Molecules for B -Galactocerebrosidase). Settings: 145M-Twi-hGALC-G270D cells (Twitcher mouse brain line with human GALC G270D), HMU-beta-Gal fluorescence, 48 h; series mostly up to 57.5 µM; activation: at the top concentration.
In short: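 Fluorogenic HMU-b-Gal hydrolysis (0.1 mM final, pH 5.2 citrate-phosphate with 1 mg/mL sodium taurocholate; carbonate stop buffer) measures mutant GALC activity after compound treatment of live 145M-Twi Twitcher brain cells stably carrying human GALC-G270D, with wild-type GALC line alongside; activation sought.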
Further: nearly all actives have a fitted effect of over 65% in size.
Potency means the concentration at half of the fitted maximal effect.
Wherever activation is given: 0% is about no effect.

Sequence of UniProt P54803 (P54803 whole entry, looked up): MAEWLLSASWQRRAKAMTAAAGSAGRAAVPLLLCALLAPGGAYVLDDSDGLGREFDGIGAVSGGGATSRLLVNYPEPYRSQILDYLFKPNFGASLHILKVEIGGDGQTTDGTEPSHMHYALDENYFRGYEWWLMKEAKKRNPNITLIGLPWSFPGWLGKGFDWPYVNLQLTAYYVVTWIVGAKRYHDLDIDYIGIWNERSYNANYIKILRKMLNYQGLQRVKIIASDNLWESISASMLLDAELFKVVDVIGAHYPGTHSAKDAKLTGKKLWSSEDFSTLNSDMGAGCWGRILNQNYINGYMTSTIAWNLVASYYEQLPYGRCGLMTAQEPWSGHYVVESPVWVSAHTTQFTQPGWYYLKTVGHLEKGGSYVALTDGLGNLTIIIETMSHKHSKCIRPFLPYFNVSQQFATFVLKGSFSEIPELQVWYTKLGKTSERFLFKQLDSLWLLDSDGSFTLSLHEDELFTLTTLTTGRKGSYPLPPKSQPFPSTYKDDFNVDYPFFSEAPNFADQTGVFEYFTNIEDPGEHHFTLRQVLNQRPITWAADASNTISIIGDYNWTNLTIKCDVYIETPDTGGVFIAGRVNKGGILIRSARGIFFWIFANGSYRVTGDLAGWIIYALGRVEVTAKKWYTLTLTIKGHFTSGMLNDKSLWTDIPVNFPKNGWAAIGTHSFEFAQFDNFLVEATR

activation, inactive:
O=C(CSc1nc2ccsc2c(=O)n1-c1ccc(Br)cc1)NCc1ccc(Cl)cc1 -13.8%
COc1cc(C(=O)NCc2nc(-c3ccc(Cl)cc3)no2)cc(OC)c1OC -11%
COC(=O)CCNC(=O)N1CCN(c2nnc(C)c3c(C)n(-c4ccccc4)nc23)CC1 -18.1%
O=C(Cn1c(=O)n(Cc2ccc(F)cc2)c(=O)c2sc3ccccc3c21)Nc1ccc(F)cc1F -18.7%
COc1cccc(CNC(=O)Cn2cccc2C(=O)c2ccccc2)c1 -5.77%
Cc1cccc(CN2C(=O)c3ccccc3S(=O)(=O)c3ccc(C(=O)OCC4CCCO4)cc32)c1 (stereo not drawn) -0.93%
CCc1ccc(CNC(=O)C2COc3ccccc3C2)cc1 (stereo not drawn) -3.2%
COc1cc(NS(=O)(=O)c2cc3[nH]c(=O)[nH]c3cc2C)cc(OC)c1OC -1.83%
Cc1cccc(C)c1NC(=O)CC12CCCN1CCC2 -10.8%
COc1ccc(NC(=O)CSCc2cc(=O)c3cc(Cl)ccc3[nH]2)cc1 -2.94%
Cc1ccc(N2CC(NC(=O)C3CCCCC3)CC2=O)cc1 (stereo not drawn) -7.91%
CCOC(=O)c1cc(S(=O)(=O)N2CCN(c3ccccc3OC)CC2)[nH]n1 -9.34%
Cc1cccc(C(=O)Nc2cc(-c3ccccc3F)nn2-c2ccccc2)c1 -13.6%
CCOc1ccc(C2CC(=O)Nc3c2c(=O)[nH]c2ncnn32)cc1 (stereo not drawn) -7.04%
CCc1ccc(C(=O)c2cn(CC(=O)Nc3ccc(F)cc3)c3ccc(F)cc3c2=O)cc1 -21.8%
CCn1c(CNC(=O)c2ccc(OC)cc2)nnc1SCC(=O)Nc1ccc(F)cc1 8.12%
O=C(O)c1ccc(OCCCOc2ccc(C(=O)O)cc2)cc1 -18.6%
COc1ccc(C(C)=O)cc1CSc1nc(NCc2ccccc2)c2ccccc2n1 -13.4%
COc1ccc(NC(=O)C(C)N2Cc3ccccc3C2=O)cc1OC (stereo not drawn) -16.7%
Cc1ccc2c(c1)-c1c(cnc3cc(-c4ccc(Cl)cc4)nn13)CO2 -15.3%
COc1ccccc1CNC(=O)c1ccc2c(c1)nc(C)n2-c1cccc(C)c1 -11.7%
Cc1ccc(CCNC(=O)c2sc3nc4n(c(=O)c3c2C)CCCC4)cc1 -13.4%
CC(CNC(=O)c1cc2cc(S(=O)(=O)N3CCCCC3)ccc2n1C)c1ccccc1 (stereo not drawn) 3.36%
Cc1ccc2onc(CNC(=O)N3CCN(c4cc(Cl)ccc4C)CC3)c2c1 -9.85%
Cc1ccc(COC(=O)c2[nH]c3c(c2C)C(=O)CC(c2ccc(Cl)cc2)C3)cc1 (stereo not drawn) -12.5%
CC(C)OC(=O)c1ccc(NC(=O)CSc2nc(-c3cccs3)cc(C(F)(F)F)n2)cc1 -2.19%
CC(C)CC(=O)n1nc(-c2ccco2)nc1NCc1ccc(Cl)cc1 -9.16%

Potency, active:
Cc1ccc2c(c1)c(=O)c1ccccc1n2CCCC(=O)Nc1ccc(C)c(C)c1 39.8 µM
